Test results taken from PubChem BioAssay AID1963576 (National Center for Advancing Translational Sciences (NCATS), 2024).
Hit rate of the full screen: of about 46,000 compounds, about 60 (0.1%) were called active. Roughly 3% stayed inconclusive and do not appear here. Calls follow the shape of the dose curve; as a rule, active = well fitted inhibition curve with a large enough effect; inconclusive = small, poorly fitted or top-dose-only effect; inactive = no such curve, though single readings can be large or run the other way. Some of the results follow.

assay: Primary qHTS assay for Inhibitors of ovarian cancer metastasis using an organotypic tumor microenvironment (TME) model.; also: nearly all actives have a fitted effect of over 65% in size;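 as to activity change, negative = inhibition: plate controls were DMSO wells for no effect and tomatine positive control wells for full effect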; settings: SKOV3ip1-GFP adhesion/invasion on 3D omental model, fluorescence; series mostly up to 45.8 µM; activity change, negative = inhibition: at the top concentration
How it was run: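 qHTS, 4-pt dose (0.36-46 umol/L); SKOV3ip1-GFP, 1,200 cells/well, no FBS; primary omental fibroblast/mesothelial co-culture 48 h pre-grown; 2 h RT + 16 h 37 C; PBS wash, 4% PFA; GFP count 488/509 nm.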

Activity change, negative = inhibition, inactive:
CCCCOC(=O)c1ccc(NC(=O)CSc2nc3c(c(=O)[nH]2)CCCC3)cc1 1.21%
Cn1c(-n2cccc2)c(-c2c(-c3ccccc3)[nH]c3c2c(=O)n(C)c(=O)n3C)c(=O)n(C)c1=O 5.24%
Cc1ccc(-c2nnc(C3CCN(S(=O)(=O)c4ccc(C)c(C)c4)CC3)o2)cc1 -5.95%
CCOc1ccccc1NC(=O)CN1C(=O)CC(c2ccc(OC)c(OC)c2)Sc2ccccc21 (configuration not stated) 16.2%
O=C(NCc1ccccc1)c1nn(-c2ccccc2)nc1CO -9.49%
COc1ccc(OC)c(/C=C(/C#N)c2nc(-c3ccc(-c4ccccc4)cc3)cs2)c1 3.85%
Cc1ccc(CNC(=O)Cn2c(=O)n(-c3ccc(Cl)cc3)c(=O)c3c(C)c(C)sc32)cc1 -8.99%
O=C(NCc1ccc(F)cc1)c1cc2c(=O)n3ccccc3nc2s1 -1.59%
Cc1cc(C)cc(NS(=O)(=O)c2ccc3[nH]cc(C(=O)N(C)Cc4ccccc4)c(=O)c3c2)c1 -28.3%
CCN1CCOC(=O)C1CC(=O)Nc1cc(C)cc(C)c1 (configuration not stated) -0.329%
Cc1ccccc1CN1C(=O)c2ccccc2Sc2ccc(C(=O)NC(C)c3ccccc3)cc21 (configuration not stated) -12.4%
COc1ccccc1CNC(=O)c1ccc2c(c1)nc(C)n2-c1ccccc1OC -12.9%
Cc1cc(Nc2ccc(F)cc2)n2c(nc3ccccc32)c1C#N -16.8%
COC(=O)c1ccccc1NC(=O)c1ccc2c(c1)CCN2S(C)(=O)=O 1.88%
CCCCNc1nc2c(S(=O)(=O)c3ccc(C)c(C)c3)nnn2c2ccsc12 3.52%
Cc1ccc(NC(=O)Cn2c(=O)n(CCCCC(=O)NCc3ccccc3Cl)c(=O)c3ccccc32)cc1C -0.308%
CCOc1ccc(NC(=O)Cn2c(C)cc3ccccc3c2=O)cc1 7.15%
Cc1nc2ccccn2c(=O)c1NC(=O)c1ccc(C(F)(F)F)cc1 -5.94%
COc1ccccc1NC(=O)CN1CCCN(S(=O)(=O)c2ccc(Br)cc2)CC1 -3.8%
COc1ccc(C(=O)Nc2cccc(OCc3cc(=O)n4c5c(sc4n3)CCCC5)c2)cc1 -20.4%
COc1ccc(OC)c(S(=O)(=O)NCc2cccn2Cc2cccc(C)c2)c1 5.43%
Cc1ccc(C)c(NC(=O)CSc2c3c(nc4ccc(Cl)cc24)CCCC3)c1 3.01%
CCOC(=O)c1ccccc1NC(=O)c1sc2ncn(Cc3cccc(F)c3)c(=O)c2c1C 13.7%
COc1ccc(/C=C(\C#N)c2nc(-c3cc4c(ccc5ccccc54)oc3=O)cs2)cc1O -2.64%
Cc1ccc(C2=Nc3ccccc3N(CC(=O)NCc3ccc(F)cc3)C(=O)C2)cc1C -7.55%
O=C(O)c1ccc(-n2c(/C=C\c3ccc(O)cc3)nc3ccccc3c2=O)cc1 6.94%
COc1ccccc1NC(=O)CSc1nc2ccccc2c2nc(-c3ccccc3)nn12 5.73%
COc1ccccc1-c1cc(C(=O)Nc2ccccc2C(F)(F)F)no1 3.67%
CCN1CCN(c2cc3c(cc2F)c(=O)c(S(=O)(=O)c2ccccc2)cn3C)CC1 8.89%
CC(C)NC(=O)CCCN1C(=O)CCn2nc(-c3cccn3C)cc21 -2.63%
COC(=O)c1cc2c(cc1NC(=O)c1cnn(-c3ccc(C)cc3)c1-n1cccc1)OCO2 11%
COC(=O)c1sc(NC(=O)/C=C/c2ccc(OC)c(OC)c2)c(C(=O)OC)c1C 0.264%
COc1ccc(CNC(=O)CSc2nc3ccccc3nc2Cc2ccccc2OC)cc1 -6.18%
COc1ccc(OCc2nc3c4c(-c5ccccc5)c(-c5ccccc5)oc4ncn3n2)cc1 -7.1%
COc1cccc(C(=O)c2cn(CC(=O)NCc3ccccc3)c3nc(C)ccc3c2=O)c1 -3.39%
CCOC(=O)c1ccc(NS(=O)(=O)c2cc(-c3onc(C)c3C)ccc2C)cc1 -3.09%
Cc1cccc(CNC(=O)CSCc2cnn(-c3ccccc3)c2-n2cccc2)c1 -5.4%
CC1=C(C(=O)OCc2ccccc2)C(c2cccc(Cl)c2Cl)CC(=O)N1 (configuration not stated) -12.1%
O=S(=O)(O)CCS 15.7%
Cc1nn(C)c2c1c(C(F)(F)F)cc(=O)n2C(C)C(=O)NCc1ccc(Cl)cc1 (configuration not stated) 10.7%
Cc1[nH]c2ccccc2c1C1N2CC3(C)CN1CC(C)(C2)C3=O (configuration not stated) -1.98%
COC(=O)c1ccc(NC(=O)CC2C(=O)N(c3ccc(Cl)cc3)C(=O)N2Cc2ccco2)cc1 (configuration not stated) -12.3%
CC1=C(c2ccc(C)cc2)S(=O)(=O)NC1=NCc1cccc(F)c1 -7.22%
CC1(C)SCCN(S(=O)(=O)c2ccc(OCC#CCO)cc2)[C@@H]1C(=O)NO -5.91%
COc1ccc(NC(=O)CN2CCCN(Cc3ccc(Cl)cc3)S2(=O)=O)cc1Cl -8.99%
CCOC(=O)c1cnc2ccccc2c1NCCc1ccc(OC)c(OC)c1 2.67%
COc1ccc(CNC(=O)c2cnc3sc(N4CCCCCC4)nn3c2=O)cc1 6.33%
CCN1c2ccccc2-c2nc(SCC(=O)NCc3ccc(C)cc3)ncc2S1(=O)=O 4.93%

outcome, inactive:
Cc1ccc(N2C(=O)CCSC23C(=O)N(Cc2ccccc2)c2ccccc23)cc1F (configuration not stated)
COc1ccc(NC(=O)CC2C(=O)N(c3ccc(F)cc3)C(=O)N2Cc2ccco2)cc1 (configuration not stated)
Cc1nn2c(-c3ccco3)ccnc2c1-c1ccc(F)cc1
COc1cc(Nc2ncc3c(n2)CCN(Cc2cc(Br)cs2)C3)cc(OC)c1
Cc1c(-c2nc(-c3ccccc3)no2)nnn1-c1cccc(C(F)(F)F)c1
Cc1ccc(CSc2nc3c([nH]c4ccccc43)c(=O)n2C)cc1
COc1ccc(NC(=O)c2cccn2-c2nnc(N3CCCCC3)s2)cc1Cl
Cn1c(=O)c2c(nc3n(-c4ccc(O)cc4)c(-c4ccc(Br)cc4)cn23)n(C)c1=O
CC1=C(C(=O)Nc2cccnc2)C(c2ccc(Cl)cc2)n2nc(-c3ccccc3)nc2N1 (configuration not stated)
COc1cn(CC(=O)Nc2cccc(C)c2C)c(CN2CCCCC2)cc1=O
O=C(Nc1ccc(Br)cc1F)N1CCC(CN2CCCC2)CC1
CCN1C(=O)c2ccccc2S(=O)c2ccc(C(=O)N3CCN(c4cccc(C)c4)C(C)C3)cc21 (configuration not stated)
COc1cc(OC)c(C2Nc3c(C)cccc3-c3cc(C)nn32)cc1OC (configuration not stated)
CCOC(=O)c1ccc(NC(=O)Cn2cc(C(=O)c3ccc(CC)cc3)c(=O)c3ccc(C)nc32)cc1
